This is one part of the list.

The assay relates to HSkMC (human skeletal muscle cells). As to the kind of experiment: cytotoxicity call (relative viability < 0.9). Conditions: 10 µM.
As to `Cc1ccc(S(=O)(=O)Nc2ccc3c(c2)C(=O)N([C@H](C)CO)C[C@H](C)[C@H](CN(C)C(=O)Nc2ccc4c(c2)OCO4)OCCCC[C@@H](C)O3)cc1`, the cytotoxicity call was “inactive”.
Then `C[C@@H]1CN([C@@H](C)CO)C(=O)c2cc(NS(=O)(=O)c3ccccc3)ccc2O[C@@H](C)CCCCO[C@H]1CN(C)Cc1ccccc1`, with “inactive”.
Take `O=C(CN1CCOCC1)NCC[C@@H]1CC[C@@H](NC(=O)Cc2ccccn2)[C@H](CO)O1`: the cytotoxicity call is “inactive”.
On to `COc1ccc(S(=O)(=O)Nc2ccc3c(c2)C(=O)N([C@@H](C)CO)C[C@@H](C)[C@@H](CN(C)C(=O)Nc2ccc(F)cc2)OCCCC[C@H](C)O3)cc1`, for which the cytotoxicity call is “inactive”.
With `C[C@H]1CCCCO[C@@H](CN(C)Cc2ccc(C(F)(F)F)cc2)[C@@H](C)CN([C@@H](C)CO)C(=O)c2cc(NC(=O)Nc3ccc(C(F)(F)F)cc3)ccc2O1`, the cytotoxicity call is “active”.
On to `COc1ccc(CN(C)C[C@@H]2Oc3ccc(NC(=O)Cn4cnnn4)cc3C(=O)N([C@H](C)CO)C[C@@H]2C)cc1`, for which the cytotoxicity call was “inactive”.
`C[C@H]1CCCCO[C@H](CN(C)CC2CC2)[C@@H](C)CN([C@@H](C)CO)C(=O)c2cc(NC(=O)CCC(F)(F)F)ccc2O1`: the cytotoxicity call is “inactive”.
As for `O=C(O)c1cccc(O)c1O`, the cytotoxicity call was “inactive”.
On to `C[C@H]1CN([C@@H](C)CO)C(=O)c2cccc(NS(=O)(=O)c3cn(C)cn3)c2O[C@H]1CN(C)Cc1ccncc1`, for which the cytotoxicity call was “inactive”.
Then `CCCC#Cc1cnc2c(c1)C(=O)N([C@@H](C)CO)C[C@H](C)[C@@H](CN(C)C(=O)c1ccc3c(c1)OCO3)O2`, with “inactive”; and `C[C@@H]1CN([C@H](C)CO)C(=O)c2cc(NS(=O)(=O)c3ccc(Cl)cc3)ccc2O[C@@H]1CN(C)Cc1ccc(Oc2ccccc2)cc1`, with “active”.
